This is one part of the list. These are noisy estimates, calculated here from bound and input reads.
target: T1, Pho4 (S. cerevisiae) (UniProt P07270); experiment: relative binding free energy (BET-seq); higher = weaker binding; details: reference: library average
T1 sequence: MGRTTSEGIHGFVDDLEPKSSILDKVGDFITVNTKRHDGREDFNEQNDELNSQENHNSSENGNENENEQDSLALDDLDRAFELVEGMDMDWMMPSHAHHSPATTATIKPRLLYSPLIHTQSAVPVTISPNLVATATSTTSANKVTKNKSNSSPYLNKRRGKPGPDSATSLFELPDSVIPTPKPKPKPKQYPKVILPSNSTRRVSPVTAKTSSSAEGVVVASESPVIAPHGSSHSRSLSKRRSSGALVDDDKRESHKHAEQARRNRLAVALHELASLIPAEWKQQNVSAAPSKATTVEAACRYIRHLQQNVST

Sequence | relative binding free energy [kcal/mol]
TTATTCACGTGCTATT | -0.03
TTTCTCACGTGATCGG | 0.3
TTTGTCACGTGACTAT | 0.38
GTAAACACGTGAGTGG | 0.14
GGATGCACGTGCTGAG | -0.03
CGGTTCACGTGCCGGG | 0.16
TGTAGCACGTGTGTCA | -0.08
CTGGACACGTGTAGTT | 0.02
TTATACACGTGGATAG | 0.06
CGAGGCACGTGCGGTG | -0.2
AGGCGCACGTGAGATG | 0.16
TTAAACACGTGTTGGC | -0.03
AATGTCACGTGGAGCG | 0.18
GTGTTCACGTGCGCGT | 0.22
TGTATCACGTGATGAG | 0.24
AAGATCACGTGTTAGG | 0.15
GGTGTCACGTGCAGGC | 0.16
GTATTCACGTGTTATT | 0.18
GAACGCACGTGGAGGG | -0.13
TGGATCACGTGATCGG | 0.34
TTGTGCACGTGTGTTT | 0.07
AGTTACACGTGCTTTT | 0.23
CGCTGCACGTGGGGGT | -0.15

Sequence | relative binding free energy [kcal/mol]
GGGCGCACGTGGTAGA | -0.04
GTTCGCACGTGGGCAT | -0.08
CTGGTCACGTGCGAGT | 0.15
TAAACCACGTGGGTTT | -0.06
TGATTCACGTGTTCGG | 0.27
ATTATCACGTGTCTTG | 0.1
GGGGGCACGTGTACTA | -0.13
TCTTGCACGTGTTAAT | 0.03
TATGGCACGTGACTAG | -0.04
AACGGCACGTGTGGGT | -0.01
TGTCTCACGTGTTGAA | 0.11
GAAGGCACGTGTGGCA | 0.05
ATTGTCACGTGGGGTT | 0.01
AGGGTCACGTGTTAGG | 0.02
TGAAGCACGTGTGAGA | 0.1
GGCGGCACGTGGGACG | -0.3
AAGGTCACGTGGGTTA | 0
TAATGCACGTGGGAAT | -0.11
CAGTTCACGTGGGGCG | 0.13
CGTGGCACGTGGTGGT | -0.13
GATTTCACGTGTCGGA | 0.32
CTAGGCACGTGTTTGA | -0.07
GCTTGCACGTGGCTGT | 0.03

Sequence | relative binding free energy [kcal/mol]
AGGATCACGTGGTTGT | 0.18
GTAATCACGTGTATTG | 0.1
TTGGACACGTGAGTGA | 0.22
ATATACACGTGGTAGA | -0.08
TTCTTCACGTGATTCT | 0.45
TGGGGCACGTGTGTCG | -0.1
AAGGGCACGTGTCTGA | -0.13
AGGGCCACGTGGTTTT | -0.02
GCGTACACGTGTAGGA | 0.18
GTGTTCACGTGTCGTG | 0.29
AATGGCACGTGGGGAA | -0.14
TCGAACACGTGTTTTT | 0.13
ATAGGCACGTGGGTTA | -0.27
TTATTCACGTGCATGG | 0.19
ACTGGCACGTGCGGTG | -0.16
TTATACACGTGGGTAT | -0.01
TAACGCACGTGTTTGG | -0.11
GCGTTCACGTGAGGGC | 0.46
ATACGCACGTGTATGG | -0.21
TTTGGCACGTGCGGCG | -0.13
GTACACACGTGAGGGT | 0.15
TATTGCACGTGTCCGG | 0.01
TTATGCACGTGATGCT | -0.09

Sequence | relative binding free energy [kcal/mol]
GTAAGCACGTGTCGTT | 0.02
TTGTGCACGTGGGGGG | -0.16
TGGAGCACGTGCGTAT | -0.05
GTGACCACGTGATGGG | 0.24
GGGAGCACGTGCTTTT | -0.08
TGAGGCACGTGGTGGC | -0.07
AAATACACGTGTAGTG | 0.15
TCGTTCACGTGTGGGA | 0.21
AGGGGCACGTGCAGGG | -0.15
CTATTCACGTGGCGGG | 0.12
TTGACCACGTGTTGTT | -0.16
TGTTACACGTGTGGGC | 0.12
TTTTACACGTGCTGCT | 0.03
TTCGACACGTGAAGGT | 0.29
TGGGACACGTGTATTA | 0.07
ATTAGCACGTGCATTT | -0.07
CTGGTCACGTGATGAT | 0.12
GATGTCACGTGGGGAT | 0.03
CTGTACACGTGTGTAT | 0.15
TTATACACGTGCCGTG | 0.08
TTTTTCACGTGCTTGC | 0.21
CGTTACACGTGTGCGG | 0
ATAGGCACGTGGTGCA | -0.19

Sequence | relative binding free energy [kcal/mol]
CTTGTCACGTGTGCTT | 0.04
GCTTGCACGTGTGGAA | 0.19
GAAGCCACGTGTGAGG | 0.11
TGCGCCACGTGGGTGT | -0.31
GTGTTCACGTGGGTCG | 0.11
ATTTGCACGTGTAAGT | 0.16
ATGGACACGTGGTGTA | 0.04
TTTAGCACGTGGACAT | -0.03
ACGGGCACGTGGTTGC | -0.02
ATATTCACGTGTAATT | 0.36
GTAATCACGTGTCAGT | 0.13
CTTTTCACGTGGTTCT | 0.29
GGTAACACGTGTAGTA | 0.16
GGGGGCACGTGATGGA | 0.08
TATGGCACGTGCAGCG | -0.03
TTTGTCACGTGACATT | 0.21
GTTAGCACGTGGTAGA | -0.04
TGTAGCACGTGCTTTA | -0.05
GTTTGCACGTGTACAT | 0.12
GGTATCACGTGGATAA | 0.38
GATGTCACGTGTTGCG | 0.24
GAATTCACGTGGTATT | 0.23
TGCGTCACGTGACGGG | -0.05

Source: the BET-seq Pho4 binding data (Le et al. 2018)
